The campaign covered roughly 350,000 compounds. About 260 (0.074%) were called active. Inconclusive results, whose numbers are uncertain, are shown with a selection of clear calls. The call rests on the fitted dose curve; in most records, active means well fitted inhibition curve with a large enough effect; inconclusive means small, poorly fitted or top-dose-only effect; inactive means no such curve, though single readings can be large or run the other way. Potencies of inconclusive entries are doubtful fits and often do not repeat.
The compounds below were run against Ferritin light chain (Equus caballus) (UniProt P02791) (assay: qHTS Assay for Identification of Novel General Anesthetics). Details: apoferritin/1-aminoanthracene competitive binding, fluorescence; series mostly up to 77.5 µM.
Summary of the method: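 Read-out: endpoint 1-AMA fluorescence, excitation 380 nm and emission 535 nm, after compounds sit 10 min at room temperature with 10 uM horse-spleen apoferritin in 50% saturated 1-AMA/PBS. Values come from four-parameter Hill fits.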
Further: nearly all actives have a fitted effect of over 20% in size.
Potency means the concentration at half of the fitted maximal effect; tags describe the fitted curve by direction and shape.

UniProt P02791, sequence (P02791 whole entry, looked up): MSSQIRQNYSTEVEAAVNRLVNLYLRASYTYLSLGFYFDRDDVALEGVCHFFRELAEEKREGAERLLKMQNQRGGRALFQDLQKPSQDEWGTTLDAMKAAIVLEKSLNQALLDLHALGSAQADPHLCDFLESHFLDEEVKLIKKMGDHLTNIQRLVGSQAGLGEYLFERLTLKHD

Potency, inactive:
Cc1ccc(CNC(=O)[C@H](C)[C@H]2C[C@]2(C)[C@H](NC(=O)OCc2ccccc2)c2ccccc2)o1
N#Cc1cc(-c2cccc(Cl)c2)c[nH]c1=O
O=C(c1cccs1)N(Cc1ccco1)Cc1cc2ccccc2[nH]c1=O
Cc1ccc(NC(=S)NCC(C)CSc2ccc(Cl)cc2)cc1 (centres undefined)
O=C(CSc1nc2ccccc2s1)Nc1nccs1
CCCCSCCCNC(=O)CN1C(=O)COc2ccc(S(=O)(=O)N3CCCC3)cc21
COc1cccc(C(=O)NCCN2CCN(c3ccccc3)CC2)c1
COc1ccc2[nH]c(=O)c(CN(CCO)C(=O)c3cccs3)cc2c1
Cn1c(=O)c2c(O)c([N+](=O)[O-])c(=O)n(C)c2n(C)c1=O
COc1ccccc1CNC(=O)c1ccc(N2CCCC2)c(NC(=O)NCCC(C)C)c1
CCc1ccc(NC(=O)CSc2nnc(Cc3cccn3C)n2-c2ccc(OC)cc2)cc1
C=CCNC(=O)c1ccc(CN(c2ccc(OCC)cc2)S(=O)(=O)c2ccc(C)cc2)cc1
O=C(NC(NC(=S)Nc1c(Cl)cccc1Cl)C(Cl)(Cl)Cl)c1cccc([N+](=O)[O-])c1 (centres undefined)

Potency, inconclusive:
O=C(/C=C(\O)c1ccc(Cl)cc1)C(=O)NNC(=O)C(O)(c1ccccc1)c1ccccc1 17.8 µM [inhibitor, partial curve]
CCOC(=O)c1c(C)[nH]c(C)c1C(=O)COC(=O)c1ccc(S(=O)(=O)N(CC)CC)cc1 25.1 µM [inhibitor, partial curve]
CCc1ccc(C(=O)COC(=O)c2ccccc2OC)cc1 39.8 µM [inhibitor, single point]
Cc1sc2ncn(-n3c(C)ccc3C)c(=O)c2c1C 28.2 µM [inhibitor, single point]
CC1(C)CC(=O)C(C=NCCN2CCN(C(=O)C34CC5CC(CC(C5)C3)C4)CC2)=C(O)C1 25.1 µM [inhibitor, partial curve]
CCOc1ccc2c(c1)nc(SCC(=O)c1ccc(Br)s1)n2C 28.2 µM [inhibitor, partial curve]
c1ccc2c(-c3nc4ncccc4o3)cccc2c1 15.8 µM [inhibitor, partial curve]
Cc1ccc(CCNC(=O)CCSCc2ccccc2F)cc1 35.5 µM [inhibitor, partial curve]
O=C(CSc1nnc(CNc2ccc(F)cc2)o1)OC1CCCCC1 31.6 µM [inhibitor, partial curve]
COC1(c2cc(-c3ccccc3)nc(N)n2)CCCCC1 28.2 µM [inhibitor, partial curve]
Cc1cccc(C)c1NC(=O)C(=O)NCCOc1ccc(Cl)cc1 31.6 µM [inhibitor, partial curve]
O=C(Nc1cccc(O)c1)c1cnn2cccnc12 56.2 µM [inhibitor, single point]
O=C(Cn1cnc2ccccc2c1=O)Nc1ccc(S(=O)(=O)N2CCOCC2)cc1 17.8 µM [inhibitor, partial curve]
CCCn1cnc2cc(NCc3cccc(OC)c3O)ccc21 31.6 µM [inhibitor, single point]
CCN(CCCNC(=O)c1cc2cc3cc(OC)ccc3nc2s1)c1ccccc1 17.8 µM [inhibitor, partial curve]
O=C(CSC1=Nc2ccccc2C2=NC(CCC(=O)NC3CCCCC3)C(=O)N12)Nc1cccc(Cl)c1 (centres undefined) 0.891 µM [inhibitor, full curve, poor fit]
COc1ccc(N2CCN(C(=O)c3ccc(Br)cc3)CC2)c([N+](=O)[O-])c1 31.6 µM [inhibitor, partial curve]
CCOc1cc(/C=N\NC(=O)CC(=O)NCCc2ccccc2)ccc1O 31.6 µM [inhibitor, partial curve]
Cc1ccccc1NS(=O)(=O)c1ccc(NC(=O)N2CCCCC2)cc1 25.1 µM [inhibitor, single point]
CC(=O)c1ccc(-c2ccc([C@H]3[C@H]4C=CC[C@@H](C)[C@@H]4C(=O)N3Cc3ccccc3)c(F)c2)cc1 15.8 µM [inhibitor, partial curve]
CCOC(=O)c1c(CC(C)C)csc1NC=O 35.5 µM [inhibitor, partial curve]
Cc1ccccc1-c1ccc(C=Nc2c(C)n(C)n(-c3ccccc3)c2=O)o1 17.8 µM [inhibitor, partial curve]
Cc1ccc(CNS(=O)(=O)c2cccc3nsnc23)cc1 35.5 µM [inhibitor, partial curve]
O=C(CSc1nnc(COc2ccccc2)n1-c1ccccc1)c1ccccc1 15.8 µM [inhibitor, partial curve]
COc1cc(C(=O)NC(C(=O)Nc2cccc(C(C)=O)c2)C(C)C)cc(OC)c1OC (centres undefined) 44.7 µM [inhibitor, single point]
O=C(CNC(=O)c1nc[nH]c1C(=O)NCc1ccccc1)OCc1ccccc1 50.1 µM [inhibitor, single point]
CCCCC(=O)NC(=S)Nc1cccc(NC(=O)c2ccccc2)c1 10 µM [inhibitor, partial curve]
c1ccc2c(Cc3c[nH]c4ccccc34)c[nH]c2c1 11.2 µM [inhibitor, partial curve]
CN1CCN(CCOc2ccc(Cc3ccccc3)cc2)CC1 12.6 µM [inhibitor, partial curve]
Cc1ccnc(NC(=O)c2ccc(Br)s2)c1 44.7 µM [inhibitor, single point]
COC(=O)c1ccccc1NC(=O)/C=N/O 35.5 µM [inhibitor, partial curve]
